Screen size: about 310,000 compounds; about 14,000 (4.5%) showed an effect of 50% or more. Effects have a minus sign here. The list shows a part of the results.
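Note: peak tail current of the secondary pulse compared with the same well before compound.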

The target of this assay is human ether-à-go-go-related gene (hERG) potassium channel (human, UniProt Q12809). Kind of assay: primary screen, population patch clamp on CHO cells stably expressing hERG.
Chain of human ether-à-go-go-related gene (hERG) potassium channel (Q12809 whole entry, looked up): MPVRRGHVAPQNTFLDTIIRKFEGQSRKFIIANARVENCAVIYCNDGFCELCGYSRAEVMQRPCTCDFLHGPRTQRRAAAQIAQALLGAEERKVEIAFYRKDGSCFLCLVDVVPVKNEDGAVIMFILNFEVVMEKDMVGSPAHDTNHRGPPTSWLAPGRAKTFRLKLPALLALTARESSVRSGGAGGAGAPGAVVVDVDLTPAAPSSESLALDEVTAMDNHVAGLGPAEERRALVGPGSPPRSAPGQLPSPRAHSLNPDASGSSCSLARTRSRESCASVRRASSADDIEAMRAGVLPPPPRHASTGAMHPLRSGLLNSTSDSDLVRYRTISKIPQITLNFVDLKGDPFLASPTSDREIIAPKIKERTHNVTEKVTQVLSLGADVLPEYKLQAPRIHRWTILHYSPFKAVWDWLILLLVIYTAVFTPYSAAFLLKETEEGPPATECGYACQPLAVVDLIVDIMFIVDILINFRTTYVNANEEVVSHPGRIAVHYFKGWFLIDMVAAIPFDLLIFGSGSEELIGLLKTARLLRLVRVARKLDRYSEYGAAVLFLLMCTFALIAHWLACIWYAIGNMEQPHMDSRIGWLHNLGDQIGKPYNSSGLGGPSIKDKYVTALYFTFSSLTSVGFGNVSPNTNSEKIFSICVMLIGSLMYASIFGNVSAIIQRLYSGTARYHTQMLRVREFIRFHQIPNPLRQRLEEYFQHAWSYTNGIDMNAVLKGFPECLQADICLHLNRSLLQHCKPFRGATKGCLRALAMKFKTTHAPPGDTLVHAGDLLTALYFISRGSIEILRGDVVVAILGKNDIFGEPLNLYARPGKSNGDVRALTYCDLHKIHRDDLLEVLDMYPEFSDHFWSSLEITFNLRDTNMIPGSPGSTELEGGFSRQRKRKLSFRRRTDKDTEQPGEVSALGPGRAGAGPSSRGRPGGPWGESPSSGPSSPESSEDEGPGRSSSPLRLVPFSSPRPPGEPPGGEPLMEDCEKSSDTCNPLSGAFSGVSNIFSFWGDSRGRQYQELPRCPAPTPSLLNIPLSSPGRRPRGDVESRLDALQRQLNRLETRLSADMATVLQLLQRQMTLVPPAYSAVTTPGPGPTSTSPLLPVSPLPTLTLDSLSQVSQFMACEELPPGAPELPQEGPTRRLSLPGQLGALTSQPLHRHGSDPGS
Turning to `COc1ccc(N=Cc2ccc(-c3ccccc3)o2)cc1`, the “hERG current change (%, negative = inhibition) at 10uM” value is 5.03%.

As for `CCOc1ccc(C(=O)Nc2nnc(S(=O)(=O)N3CCCCC3)s2)cc1`, the “hERG current change (%, negative = inhibition) at 10uM” value came to 19.7%.

Take `CC(=O)Nc1ccc(Oc2sc(C(=O)c3ccccc3)c(N)c2C#N)cc1`: the “hERG current change (%, negative = inhibition) at 10uM” value is 12.7%.

For the molecule `CC1=NN(C(=O)c2ccc(Cn3nc(C)c(Br)c3C)cc2)C(O)(C(F)(F)F)C1` (centres unmarked), the “hERG current change (%, negative = inhibition) at 10uM” value is on record as 1.79%.

Turning to `COc1ccc(Nc2nc(-c3sc(N)nc3C)cs2)cc1`, the “hERG current change (%, negative = inhibition) at 10uM” value was 8.32%.

For `C(=N\Nc1nc2ccccc2s1)/c1ccco1`, the “hERG current change (%, negative = inhibition) at 10uM” value is -17.8%.

`CC(=O)Oc1c(C)c(=O)n(C)c2ccccc12`: the “hERG current change (%, negative = inhibition) at 10uM” value was 18.1%.

For the molecule `CC(C)[C@H](NC(=O)c1ccco1)C(=O)NCc1ccccc1`, the “hERG current change (%, negative = inhibition) at 10uM” value worked out at 25.1%.

For `Cc1cc(S(=O)(=O)NCc2ccc(N3CCN(C)CC3)cc2)c(C)s1`, the “hERG current change (%, negative = inhibition) at 10uM” value is -9.41%.

Regarding `O=c1[nH][nH]c(=O)c2c(NS(=O)(=O)c3ccccc3)cccc12`, the “hERG current change (%, negative = inhibition) at 10uM” value stood at 24.7%.

Consider `COc1cccc(CSc2nnnn2-c2ccc(O)cc2)c1`, for which the “hERG current change (%, negative = inhibition) at 10uM” value was -18.5%.

For the molecule `Cc1c(O)ccc2c(O)c(NC(=O)c3ccc4c(c3)CCC(C)(C)O4)c(=O)oc12`, the “hERG current change (%, negative = inhibition) at 10uM” value is on record as 6.09%.

Take `O=S(=O)(NC(=S)c1ccccc1)c1ccccc1`: the “hERG current change (%, negative = inhibition) at 10uM” value was -15.1%.

For the molecule `O=C(C1CC(c2ccc(F)cc2)=NO1)N1CCN(Cc2ccccc2)CC1` (centres unmarked), the “hERG current change (%, negative = inhibition) at 10uM” value is -44.5%.

As to `O=C(Oc1ccc(NC2=NS(=O)(=O)c3ccccc32)cc1)c1cccnc1`, the “hERG current change (%, negative = inhibition) at 10uM” value is given as 11.7%.

Regarding `CC(C(=O)Nc1ccc2c(c1)OCO2)N1CCC(N2CCCCC2)CC1.O=C(O)C(=O)O` (centres unmarked), the “hERG current change (%, negative = inhibition) at 10uM” value stood at 5.95%.

Consider `Cc1cc(NC(=O)CSc2nnc(COc3ccccc3)o2)no1`, for which the “hERG current change (%, negative = inhibition) at 10uM” value amounted to 6.51%.

Turning to `Cc1cc(NC(=O)/C=C/c2cccc(F)c2)n(-c2nc3ccccc3[nH]2)n1`, the “hERG current change (%, negative = inhibition) at 10uM” value stood at 1%.

With `CCOc1ccc(/C=N/n2c(COc3ccccc3)n[nH]c2=S)cc1OC`, the “hERG current change (%, negative = inhibition) at 10uM” value is given as 14.8%.

Turning to `CN(C)S(=O)(=O)c1cccc(NC(=O)CNCC2CCCCC2)c1.O=C(O)C(=O)O`, the “hERG current change (%, negative = inhibition) at 10uM” value is -1.77%.

As for `Cc1ccc(NC(=O)COC(=O)C2CCC(=O)N2)c(S(=O)(=O)N2CCOCC2)c1` (centres unmarked), the “hERG current change (%, negative = inhibition) at 10uM” value is recorded as -0.0412%.

As to `Cc1c(C(=O)NN2CCOCC2)oc2c1ccc1ccccc12`, the “hERG current change (%, negative = inhibition) at 10uM” value is reported as 2.24%.

Consider `Fc1ccccc1SCc1nnc(-c2ccccc2Br)o1`, for which the “hERG current change (%, negative = inhibition) at 10uM” value turned out to be 2.04%.

For `Cc1ccc2c(c1)N(CCCC(=O)NCCCN1CCCC1=O)C(=O)CO2`, the “hERG current change (%, negative = inhibition) at 10uM” value was -8.71%.

With `CC(C)N(Cc1ccccc1)C(=S)NC(=O)C1(C)CC1(Cl)Cl` (centres unmarked), the “hERG current change (%, negative = inhibition) at 10uM” value is -7.04%.

Consider `O=C(O)CCCC(=O)Nc1nc2n(n1)C(c1ccc(F)cc1)CC(c1ccc(Cl)cc1)N2` (centres unmarked), for which the “hERG current change (%, negative = inhibition) at 10uM” value was -0.46%.

In the case of `CCOC(=O)c1nn(-c2ccc(C)cc2)cc1C(=O)c1ccccc1`, the “hERG current change (%, negative = inhibition) at 10uM” value is -9.04%.

As for `Cc1ccc(C(=O)NCC(=O)OCC(=O)c2ccccc2)s1`, the “hERG current change (%, negative = inhibition) at 10uM” value is -12.6%.

Consider `NC(=O)CSc1nc2c(c(=O)n1-c1ccccc1)C1(CCCCC1)Cc1ccccc1-2`, for which the “hERG current change (%, negative = inhibition) at 10uM” value is listed as 15.1%.

With `Cc1cc(C)c(C#N)c(SCc2nc3ccccc3[nH]2)n1`, the “hERG current change (%, negative = inhibition) at 10uM” value is listed as -9.19%.

Consider `Cc1ccc(NC(=O)CC(C)S(=O)(=O)c2ccc3c(c2)NC(=O)CO3)c(Cl)c1` (centres unmarked), for which the “hERG current change (%, negative = inhibition) at 10uM” value is recorded as 14.1%.

For the molecule `COc1ccc(NC(=O)C2CCCN(S(=O)(=O)c3ccc(C)cc3)C2)cc1OC` (centres unmarked), the “hERG current change (%, negative = inhibition) at 10uM” value was determined as 20.4%.

For the molecule `O=C(O)C(=O)O.O=C(c1cccs1)N1CCN(Cc2cccc([N+](=O)[O-])c2)CC1`, the “hERG current change (%, negative = inhibition) at 10uM” value is -33.1%.

For `CCC(C)NC(=O)c1cc2c(=O)n3cccc(C)c3nc2s1` (centres unmarked), the “hERG current change (%, negative = inhibition) at 10uM” value is recorded as -4.95%.

For the molecule `O=C(NCCc1c[nH]c2ccccc12)/C(=C/c1cccnc1)NC(=O)c1cccs1`, the “hERG current change (%, negative = inhibition) at 10uM” value is -19.1%.

`O=C(c1ccc(F)cc1)n1c(=S)nc2ccccn21`: the “hERG current change (%, negative = inhibition) at 10uM” value was -1.25%.

Consider `CCOC(=O)c1c(NC(=O)CN2C(=O)NC(C)(c3ccccc3)C2=O)sc(C)c1C` (centres unmarked), for which the “hERG current change (%, negative = inhibition) at 10uM” value worked out at 6.2%.

As to `Cc1ccnc(NC(=O)Cc2ccc(-c3ccccc3)cc2)c1`, the “hERG current change (%, negative = inhibition) at 10uM” value was found to be 16.4%.

`CS(=O)(=O)c1ccccc1-c1nc(-c2ccc([N+](=O)[O-])cc2)no1`: the “hERG current change (%, negative = inhibition) at 10uM” value was 0.719%.

`CC1=C(C(=O)OCc2ccccc2)C(c2ccccc2Br)NC(=O)N1` (centres unmarked): the “hERG current change (%, negative = inhibition) at 10uM” value came out at 14.8%.

In the case of `CC(C)c1ccccc1NS(=O)(=O)N(C)C`, the “hERG current change (%, negative = inhibition) at 10uM” value turned out to be 13.9%.

Take `CN(C(=O)c1ccc(NC(=O)Cc2ccc(NC(=O)C3CCCN(C(=O)c4ccccc4)C3)cc2)cc1)C1CC1` (centres unmarked): the “hERG current change (%, negative = inhibition) at 10uM” value stood at 15.4%.

`O=C(NCc1cccnc1)C1CCC(CNS(=O)(=O)c2cccc3nsnc23)CC1` (centres unmarked): the “hERG current change (%, negative = inhibition) at 10uM” value was -9.63%.

On to `O=C(NCCc1nnc2ccc(N3CCCCCC3)nn12)c1ccccc1F`, for which the “hERG current change (%, negative = inhibition) at 10uM” value is recorded as -7.75%.

The values are drawn from article PMC4336329 (PLoS ONE, 2015).
